# Reference: PubChem BioAssay AID485344 (National Center for Advancing Translational Sciences (NCATS), 2010)
# Screen size: about 340,000 compounds; about 6,900 (2%) were called active. No stated cut-off is given here; in the data, active means inhibition above about 30%; inactive means below that, where a call was filed. This is a selection; strong and weak results do not stand in their true shares. Where no call is shown, the source filed none.
# Target: D(2) dopamine receptor (Homo sapiens) (UniProt P14416)
# Chain of UniProt P14416 (P14416 whole entry, looked up): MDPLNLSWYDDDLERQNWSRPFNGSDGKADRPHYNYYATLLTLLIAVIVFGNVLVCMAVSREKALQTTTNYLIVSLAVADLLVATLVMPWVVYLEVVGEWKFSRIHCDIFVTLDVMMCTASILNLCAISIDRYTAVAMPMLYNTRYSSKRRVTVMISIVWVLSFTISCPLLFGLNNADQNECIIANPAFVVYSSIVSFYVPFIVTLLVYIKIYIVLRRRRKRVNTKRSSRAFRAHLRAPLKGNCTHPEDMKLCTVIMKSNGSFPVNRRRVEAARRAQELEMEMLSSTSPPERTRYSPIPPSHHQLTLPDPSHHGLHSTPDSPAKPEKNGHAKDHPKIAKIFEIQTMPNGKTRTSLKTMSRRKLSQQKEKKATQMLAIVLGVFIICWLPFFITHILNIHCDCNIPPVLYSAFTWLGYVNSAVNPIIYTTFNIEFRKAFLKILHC
# Assay: HTS Assay for Allosteric Antagonists of the Human D2 Dopamine Receptor: Primary Screen for Antagonists; further: 0% is about no effect
# Settings: HEK293 TREx D2 cells, calcium flux, dopamine EC80; at 10 µM; stronger effect = higher value
# How it was run: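 Calcium flux kinetic readout in an inducible HEK293 TREx D2 line plated overnight at 30 C. After 180 s compound exposure, an EC80 dopamine challenge follows with another 180 s kinetic read to detect antagonism.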
row,Compound,inhibition
1,Cc1nc2ccc(S(=O)(=O)NC(C(=O)NCc3ccco3)C(C)C)cc2s1 (configuration not stated),active: 31.5%
2,COc1ccc(-c2nnc(C3CCN(C(=O)c4ccccc4F)CC3)o2)cc1,-15.5%
3,Cc1cccc(NC(=O)C2CCN(c3nnc(-n4c(C)ccc4C)s3)CC2)c1C,-0.0462%
4,Cc1ccc(S(=O)(=O)NCCc2cn3c(C)csc3n2)cc1,-5.96%
5,COc1ccc(C2Sc3ccccc3NC3=C2C(=O)c2ccccc23)c(OC)c1OC (configuration not stated),-6.85%
6,CCOC(=O)Cn1cnc2c(nnn2-c2ccc(F)cc2)c1=O,active: 31.9%
7,Cc1ccc2nc(-c3cc(NC(=O)c4ccc5c(c4)OCCO5)ccc3Cl)oc2c1,22.4%
8,COc1ccc(-c2onc(C)c2C)cc1S(=O)(=O)N1c2ccccc2CC1C (configuration not stated),0.0119%
9,O=C(NCCc1csc(-c2ccc(Cl)cc2)n1)c1cccs1,-3.83%
10,CCc1ccccc1NC(=O)Cn1c(-c2nonc2N)nc2ccccc21,0.485%
11,COC(=O)c1c(NC(=O)CCCOc2ccc(C(C)(C)C)cc2)sc2c1CCC(C)C2 (configuration not stated),-11.1%
12,COc1ccc(NC(=O)/C(C#N)=C/c2ccc(OCc3cc(=O)n4nc(C)sc4n3)cc2)cc1,-2.06%
13,O=S(=O)(Nc1ccc2oc3c(c2c1)CCCC3)c1cc(Cl)ccc1Cl,-13.5%
14,CCN(C(=O)Cn1nc(Cc2cccnc2)c2ccccc2c1=O)c1ccccc1F,4.22%
15,CNC(=S)NC1CC2CCC(C1)N2Cc1ccccc1 (configuration not stated),active: 63.6%
16,CC(C)(C)c1ccc(OCc2nc(-c3ccccn3)no2)c(Br)c1,active: 38.3%
17,O=C(NCc1ccc(Cl)cc1)C(=O)Nc1ccc(Br)cc1,-11.3%
18,COc1ccc(OC2CCN(C(=O)Nc3ccc(C)cc3)CC2)cc1,active: 49.6%
19,CCc1cccc(NC(=O)Cn2c(=O)n(Cc3ccccc3)c(=O)c3c2c2cc(OC)ccc2n3C)c1,2.85%
20,CC(=O)c1cc2c(cc1NC(=O)c1c(C)nn(-c3ccc(C)cc3)c1-n1cccc1)OCO2,5.45%
21,CC1CCN(Cc2c(O)ccc3c(=O)c(-c4cccc(Cl)c4)c(C(F)(F)F)oc23)CC1,-7.25%
22,Cc1ccc(S(=O)(=O)Cc2nc(-c3ccc(C(=O)NCc4ccccc4)cc3)oc2C)cc1,-11%
23,Cc1ccc(NC(=O)CSc2nc3ncccc3[nH]2)cc1F,-24.2%
24,O=C(Nc1cccc(Br)c1)N1CCC(CN2CCCCC2)CC1,-9.92%
25,COc1ccc(OCCn2cc(C(=O)C3CCCCC3)c3ccccc32)cc1,-3.37%

row,Compound,inhibition
1,COc1ccccc1CN1CCN(Cc2ccc3ccccc3c2)CC1,active: 67.7%
2,O=C(c1ccc2c(c1)CCN2S(=O)(=O)c1ccccc1)N1CCN(c2ccc(F)cc2)CC1,-14%
3,COc1cccc(N2CCN(C(=O)c3cnn(C(C)(C)C)c3C3CCN(C(=O)OC(C)(C)C)CC3)CC2)c1,-3.87%
4,CCOc1ccc(C(=O)Nc2c(C(=O)Nc3ccccc3F)oc3ccccc23)cc1OCC,-17.1%
5,O=C(Cn1c(=O)n(-c2cccc(Cl)c2)c(=O)c2sc3ccccc3c21)N1CCCC1,16.2%
6,CC(=O)c1ccc(NC(=O)c2c3c(nc4ccccc24)C(=O)N(C2CCCCC2)C3)cc1,18.2%
7,O=S1(=O)c2ccccc2N(Cc2ccccc2)c2ccccc21,4.48%
8,CCN(CC)CCCNC(=O)C1CCN(S(=O)(=O)CC)CC1,26.6%
9,CCOC(=O)CN1C(=O)C(O)(CC(=O)c2cc(OC)ccc2OC)c2ccccc21 (configuration not stated),-17.1%
10,Cc1cccc(-n2c(-c3ccccc3)cn3c4c(=O)[nH]c(=O)n(C)c4nc23)c1,1.99%
11,Cn1cc(S(=O)(=O)c2ccccc2)c(=O)c2cc(F)c(N3CCN(c4ccccc4)CC3)cc21,-0.128%
12,Cc1ccc(-c2cc(C(F)(F)F)n3nc(C(=O)Nc4ccc(Cl)c(C(F)(F)F)c4)cc3n2)cc1,13.1%
13,Cc1cccc(C)c1OCC(=O)Nc1nc(-c2ccc(Br)cc2)ns1,-7.98%
14,Cc1cc(C)c(Cn2c3ccccc3c3cnn(CC(=O)N4CCCCCC4)c(=O)c32)c(C)c1,6.78%
15,Cc1ccc(-n2c(C)nc3c(cnn3-c3ccccc3C)c2=O)cc1F,1.46%
16,CCc1ccc2oc(-c3ccc(NC(=O)c4ccc(OC)c(Br)c4)cc3)nc2c1,3.81%
17,Cc1cccc(Cn2cc(C(=O)Nc3ccc(F)c(C(F)(F)F)c3)ccc2=O)c1,23.6%
18,O=C(NCc1cccc(F)c1)c1ccc(-n2cnc3cccnc32)cc1,2.37%
19,CCn1c(=O)c2cc(C(=O)NCCc3cc(OC)ccc3OC)sc2c2ccccc21,12.5%
20,CCCCN(CC)CCNC(=O)c1cc2c(=O)oc3ccc(C)cc3c2s1,10.8%
21,O=C(c1ccc(F)cc1)N1c2nc(-c3ccco3)nn2C2(CCCCC2)[C@@H]2CCCC[C@@H]21,-17.3%
22,CCOc1ccc(OCC)c(NS(=O)(=O)c2cc(Br)cc3c2N(C(C)=O)C(C)C3)c1 (configuration not stated),-12.3%
23,COc1ccc(-c2cc3nc(-c4ccc(C)cc4)cc(C(F)(F)F)n3n2)cc1,5.44%
24,COc1ccccc1CNC(=O)CCCc1nnc2n(CC(C)C)c(=O)c3sccc3n12,7.12%
25,CC(C)N(C(=O)CSc1nc2ccc(Cl)cc2[nH]1)c1ccccc1,6.66%

row,Compound,inhibition
1,COc1ccccc1CNC(=O)CCC1N=C2c3ccccc3N=C(SCc3cccc(Cl)c3)N2C1=O (configuration not stated),-6.59%
2,Cc1c(C(=O)OC2CCCC2)[nH]c2c1C(=O)CC(c1ccc(Cl)cc1)C2 (configuration not stated),5.19%
3,O=S(=O)(Nc1ccc(-c2ccc(N3CCCC3)nn2)cc1)c1ccc(Cl)cc1,7.87%
4,CC(=O)N1CCc2c(sc3c2c(=O)n(-c2ccccc2)c(=O)n3CC(=O)Nc2cccc(C)c2)C1,-8.06%
5,CCOc1ccc(CNS(=O)(=O)c2c(C(=O)N3CCC(C)CC3)c(C)n(C)c2C)cc1OC,-7.22%
6,CCC(=O)Nc1nnc(SCc2cc(=O)c3cc(C)ccc3[nH]2)s1,0.205%
7,COc1ccc(S(=O)(=O)N(CCc2ccccc2)CC(=O)Nc2ccc(C)c(C)c2)cc1OC,13.5%
8,COCCCNC(=O)Cn1ncc2ccsc2c1=O,active: 30.4%
9,Cc1cc(Br)ccc1N=C1C(=O)Nc2ccccc21,active: 58.9%
10,COC(=O)c1nnn(CC(=O)NC(=O)Nc2cccc(C)c2C)c1C(=O)OC,8.38%
11,COc1ccc2c(c1)CCc1c(C(=O)Nc3ccc(F)c(Cl)c3)noc1-2,2.25%
12,CCc1nc2ccc(C(=O)N3CCN(c4ccccc4)CC3)cc2nc1CC,9.76%
13,CCOc1ccccc1NC(=O)C1CCCN(S(=O)(=O)c2c(C)[nH]c(=O)[nH]c2=O)C1 (configuration not stated),6.4%
14,CCOc1ccc(-c2nonc2NC(=O)c2oc3ccc(Br)cc3c2C)cc1,-1.37%
15,O=C(CSc1nnc(-c2ccccc2)c(-c2ccccc2)n1)NC1CCCCC1,5.6%
16,Cc1ccc(N2CC(NC(=O)Cc3cccs3)CC2=O)cc1C (configuration not stated),6.35%
17,Cc1nc(N2C(=O)c3oc4ccccc4c(=O)c3C2c2cccc(OCCC(C)C)c2)sc1C (configuration not stated),12.7%
18,CCOC(=O)N1CCc2c(sc(NCc3cccc(F)c3)c2C(=O)Nc2ccccc2OCC)C1,4.88%
19,CCc1ccc(OC(C)C(=O)N2CCC(c3nc4ccccc4s3)CC2)cc1 (configuration not stated),-2.16%
20,Cc1cc(C)cc(NC(=O)CCS(=O)(=O)c2cc3c4c(c2)CCN4C(=O)CC3)c1,5.55%
21,COc1ccccc1-c1cc2nc(C)c(CCC(=O)Nc3ccc(Br)c(C)c3)c(C)n2n1,-7.02%
22,O=C(NC1(C(F)(F)F)C(=O)Nc2c1c(=O)[nH]c(=O)n2CCc1ccccc1)c1ccc(Cl)cc1Cl (configuration not stated),11.3%
23,CCn1cc(C(=O)N2CCN(c3cccc(C(F)(F)F)c3)CC2)c2cc(OC)c(OC)cc2c1=O,-19.5%
24,Cc1cc(C)c(C#N)c(N2CCN(Cc3ccccc3)CC2)n1,active: 73.8%
25,CC(C)CN(CCCNC(=O)Cn1ncc2c3ccccc3n(C)c2c1=O)CC(C)C,2.2%

row,Compound,inhibition
1,CCOC(=O)c1cc(-c2ccccc2)n(CC(=O)NC(C)c2ccccc2)c1C (configuration not stated),-6.57%
2,Cc1ccc(CNC(=O)c2cc3c(s2)-c2ccccc2SC3)cc1,-25.2%
3,CCOC(=O)c1ccc(NC(=O)Nc2c[nH]c(=O)[nH]c2=O)cc1,7.96%
4,COc1ccc(Cl)cc1NC(=O)CCS(=O)(=O)c1nc(-c2cccs2)cc(C(F)(F)F)n1,-5.41%
5,Cc1ccc2c(c1)C(C)CC(C)(C)N2C(=O)CN1CCN(C)CC1 (configuration not stated),active: 36.2%
6,Cc1ccc(-n2nc(CO)c(C(=O)NCc3ccccn3)n2)cc1C,3.59%
7,CC1CCn2c(nc3cc(C(=O)NCCc4ccc(Cl)cc4)ccc32)C1 (configuration not stated),-1.95%
8,COc1ccc(N2CC(NC(=O)COc3ccccc3)CC2=O)cc1OC (configuration not stated),-26.9%
9,CCOC(=O)c1cnc2ccc(OC)cc2c1NCCc1ccccc1,-11.7%
10,Cn1c(=O)c2c(SCC(=O)NCc3ccco3)nc(-c3ccccc3)nc2n(C)c1=O,24.8%
11,CN(c1ncnc2onc(-c3cccc(Cl)c3)c12)C1CCCCC1,-10.5%
12,CCc1ccc(-n2nc3cc(C)c(NC(=O)c4cccc5ccccc45)cc3n2)cc1,3.89%
13,Cc1cccc(CNC(=O)Cn2nc(C)n3c(cc4cc(F)ccc43)c2=O)c1,4.11%
14,Cc1ccc(-n2c(=O)c3c(C)c(C(=O)N(C)C)sc3n(CC(=O)C(C)(C)C)c2=O)cc1C,13.7%
15,COc1ccc(CN2CCC(C(=O)c3ccc(F)cc3)CC2)cc1,active: 78.5%
16,O=c1cc(-c2ccccc2)n2c(SCc3ccccc3)nnc2[nH]1,4.73%
17,CCc1ccc(-n2nc(C)c3c(C)cc(=O)n(CC(=O)N4CCCc5ccccc54)c32)cc1,14.6%
18,CCOC(=O)c1noc2ncn(CC(=O)Nc3ccc(C)c(F)c3)c(=O)c12,5.44%
19,Cc1cccc(NC(=O)CCS(=O)(=O)c2ccc3c(c2)n(C)c(=O)c(=O)n3C)c1C,-5.24%
20,CCOC(=O)C1CCCN(C(=O)c2nn(-c3ccc(OC)cc3)c(=O)c3c2c2ccccc2n3C)C1 (configuration not stated),-12.4%
21,CC(=O)OC(C)CS(=O)(=O)c1ccccc1 (configuration not stated),active: 30.2%
22,CCc1cccc(NC(=O)C2CCN(C(=O)c3cnn(-c4ccccc4)c3-n3cccc3)CC2)c1,6.82%
